# According to PubChem BioAssay AID624171 (National Center for Advancing Translational Sciences (NCATS), 2012):
# Hit rate of the full screen: of about 410,000 compounds, about 1,200 (0.29%) were called active. This list was built around the results that the source calls inconclusive (neither active nor inactive); the mix of calls is not that of the screen. Calls come from the whole dose curve; as a rule, active = well fitted activation curve with a large enough effect; inconclusive = small, poorly fitted or top-dose-only effect; inactive = flat fitted curve, though single readings scatter. Potencies of inconclusive entries are doubtful fits and often do not repeat.
# Assay: qHTS of Nrf2 Activators; note: nearly all actives have a fitted effect of over 65% in size; for activation: % of control where 0% means no effect
# Conditions: AREc32 ARE-luciferase reporter (MCF7-derived line), luminescence, 24 h; activation: at 46.1 µM (top of the series)
# How it was run: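 ARE-driven firefly luciferase activity in AREc32 cells measured after a 24 hr compound exposure at 37 deg C, using Steady-Glo reagent and a 30 min room-temperature hold.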
# Potency is the fitted concentration of half-maximal effect; tags give direction and shape of the fitted curve.
Compound,Potency,activation
Cc1cccc(OCC(=O)Nc2cc(C)ccc2O)c1,"inconclusive: 17.8 µM [activator, partial curve, poor fit]",–
Fc1ccc(F)c(C2=NNC(=NCC3CCCO3)SC2)c1 (stereo unspecified),"inconclusive: 17.8 µM [activator, single point]",–
O=C(N=Nc1c(O)[nH]c2ccccc12)c1ccco1,"inconclusive: 1.26 µM [activator, full curve, poor fit]",–
Nc1ccc(N=Nc2ccccc2)c2cccnc12,"inconclusive: 2.82 µM [activator, partial curve, poor fit]",–
CCOc1ccc(CNCCCSc2ncccn2)cc1,–,inactive: -1.13% [at 9.22 µM]
N/C(=N\OC(=O)c1cccs1)c1ccccc1,active: 10 µM,–
CC(=O)N/C(N)=N/c1nc(=O)c2ccccc2s1,"inconclusive: 7.08 µM [activator, partial curve, poor fit]",–
Cc1cc(C)nc(NC(=O)c2cccs2)c1,"inconclusive: 22.4 µM [activator, single point]",–
COc1ccccc1NC(=O)/C(C#N)=C/C=C/c1ccco1,"inconclusive: 5.01 µM [activator, partial curve]",–
Cc1c(=O)n(OCc2ccc(Cl)cc2)c2ccccc2[n+]1[O-],"inconclusive: 0.708 µM [activator, full curve, poor fit]",–
O=C1CC(Sc2nnc(-c3ccccc3)o2)C(=O)N1c1ccccc1 (stereo unspecified),"inconclusive: 31.6 µM [activator, single point]",–
O=C(CN1CCCCCC1)Nc1cc([N+](=O)[O-])ccc1Cl,inactive,–
O=C1C(C=NCc2ccccn2)=C(O)c2ccccc21,"inconclusive: 7.08 µM [activator, partial curve, poor fit]",–
Cc1ccc(NC(=O)CSc2[nH]c(=O)ncc2C)cc1,inactive,–
c1ccc2c(c1)CCc1c(-c3ccncc3)n[nH]c1-2,"inconclusive: 8.91 µM [activator, partial curve]",–
O=C(Nc1nonc1-c1ccc(Br)cc1)c1ccco1,"inconclusive: 10 µM [activator, partial curve]",–
O=C(Nc1nnc(SCc2ccc(F)cc2)s1)c1ccccn1,"inconclusive: 31.6 µM [activator, single point]",–
CCCOc1ccc(C(=O)C(CN2CCCC2)c2ccccc2)cc1 (stereo unspecified),"inconclusive: 4.47 µM [activator, single point]",–
CC(C)=NNc1cnnc2ccc([N+](=O)[O-])cc12,active: 3.55 µM,–
Nc1ccc(-c2nc3cc([N+](=O)[O-])ccc3o2)cc1,"inconclusive: 3.16 µM [activator, full curve, poor fit]",–
Cc1csc(-c2coc3cc(O)cc(C)c3c2=O)n1,active: 10 µM,–
O=C(Nc1nc(-c2ccco2)c(-c2ccco2)s1)c1c(F)cccc1Cl,inactive,–
Cc1ccc(-c2nc3sc(C#N)c(N)n3c(=O)c2C#N)cc1,"inconclusive: 2.82 µM [activator, full curve, poor fit]",–

Compound,Potency,activation
CC1CC(N(C(=O)c2ccccc2Cl)c2ccccc2)c2ccccc2N1 (stereo unspecified),"inconclusive: 22.4 µM [activator, single point]",–
COc1ccc(-n2nnnc2/C=C/Nc2cc(C(F)(F)F)ccc2OC)cc1,inactive,–
Cc1ccc(/C=N/Nc2nc3ccccc3s2)o1,"inconclusive: 3.98 µM [activator, single point]",–
CC(C)C1S/C(=N/N=C/c2ccco2)NC1=O (stereo unspecified),"inconclusive: 17.8 µM [activator, single point]",–
COc1ccc(C2CC(c3cccc([N+](=O)[O-])c3)=NN2/C(C)=C/C(C)=O)cc1 (stereo unspecified),"inconclusive: 15.8 µM [activator, single point]",–
CC(=O)OCC1=C[C@@H]2OC(=O)C3=CO[C@@H](O[C@@H]4O[C@H](CO)[C@@H](O)[C@H](O)[C@H]4O)[C@H]1[C@@H]32,inactive,–
O=C(/C=C/c1ccc([N+](=O)[O-])s1)N1CCCC1,"inconclusive: 3.16 µM [activator, partial curve, poor fit]",–
O=S(=O)(NCCc1ccccc1)c1cnc(Cl)c(Br)c1,"inconclusive: 17.8 µM [activator, single point]",–
CC(=O)Oc1oc(-c2ccccc2)nc1/C=N/c1ccccn1,"inconclusive: 14.1 µM [activator, single point]",–
COc1ccccc1C(=O)Oc1ccc2c(c1)O/C(=C\c1ccncc1)C2=O,"inconclusive: 22.4 µM [activator, single point]",–
COC(=O)c1sc2cccc(F)c2c1S(=O)(=O)Nc1cc(OC)cc(OC)c1,"inconclusive: 15.8 µM [activator, partial curve, poor fit]",–
O=c1c(-c2ccco2)[n+]([O-])c2ccccc2n1OCc1ccccc1,active: 3.16 µM,–
COc1ccccc1C(C)NCC(=O)NCc1ccc(C)cc1 (stereo unspecified),inactive,–
O=C1C(=Cc2ccc(F)cc2)CCc2ccccc21,"inconclusive: 22.4 µM [activator, single point]",–
COc1cccc(/C=N/NC(=O)C(=O)N/N=C/c2cccc(OC)c2O)c1O,inactive,–
NC(=S)NN=C1c2ccccc2-c2c(F)c(F)c(F)c(F)c21,"inconclusive: 17.8 µM [activator, partial curve, poor fit]",–
COc1cccc(C=NNC(=O)c2ccncc2)c1O,inactive,–
Cc1ncc(C[n+]2csc(C)c2C)c(N)n1,inactive,–
Cc1noc(Cn2c(=O)c3cc4c(cc3n(CC(=O)Nc3cccc(Cl)c3)c2=O)OCO4)n1,inactive,–
CCOc1ccccc1NC(=O)c1nc(S(=O)(=O)Cc2ccccc2)ncc1Cl,"inconclusive: 7.08 µM [activator, partial curve, poor fit]",–
Cc1ccc(-c2csc(N3CCC[C@@H]3C(=O)NCCn3c(C(F)(F)F)nc4ccccc43)n2)cc1,inactive,–
Cc1nc2ccccc2c(=O)n1/N=C/c1ccccc1,"inconclusive: 17.8 µM [activator, partial curve, poor fit]",–
Cc1cc(-n2c(C)cc(C(=O)COc3cc(F)ccc3[N+](=O)[O-])c2C)no1,"inconclusive: 25.1 µM [activator, single point]",–
